Experimental data reported in the supplement of paper PMC3334620.
Whole data set: some 33,000 sequences, median “E-score (-0.5 to 0.5)” near -0.035, cut for the highest 2% near 0.35. This is one part of the list.

Each sequence was assayed against T1, Pdr3 (UniProt P33200) (assay: PBM E-score (8-mer binding enrichment) (E-score (-0.5 to 0.5)); higher = stronger / more preferred TF binding; most listed sequences are background and not binding sites). Details: protein concentration: 200 nM; construct: GST-full length.
T1 sequence: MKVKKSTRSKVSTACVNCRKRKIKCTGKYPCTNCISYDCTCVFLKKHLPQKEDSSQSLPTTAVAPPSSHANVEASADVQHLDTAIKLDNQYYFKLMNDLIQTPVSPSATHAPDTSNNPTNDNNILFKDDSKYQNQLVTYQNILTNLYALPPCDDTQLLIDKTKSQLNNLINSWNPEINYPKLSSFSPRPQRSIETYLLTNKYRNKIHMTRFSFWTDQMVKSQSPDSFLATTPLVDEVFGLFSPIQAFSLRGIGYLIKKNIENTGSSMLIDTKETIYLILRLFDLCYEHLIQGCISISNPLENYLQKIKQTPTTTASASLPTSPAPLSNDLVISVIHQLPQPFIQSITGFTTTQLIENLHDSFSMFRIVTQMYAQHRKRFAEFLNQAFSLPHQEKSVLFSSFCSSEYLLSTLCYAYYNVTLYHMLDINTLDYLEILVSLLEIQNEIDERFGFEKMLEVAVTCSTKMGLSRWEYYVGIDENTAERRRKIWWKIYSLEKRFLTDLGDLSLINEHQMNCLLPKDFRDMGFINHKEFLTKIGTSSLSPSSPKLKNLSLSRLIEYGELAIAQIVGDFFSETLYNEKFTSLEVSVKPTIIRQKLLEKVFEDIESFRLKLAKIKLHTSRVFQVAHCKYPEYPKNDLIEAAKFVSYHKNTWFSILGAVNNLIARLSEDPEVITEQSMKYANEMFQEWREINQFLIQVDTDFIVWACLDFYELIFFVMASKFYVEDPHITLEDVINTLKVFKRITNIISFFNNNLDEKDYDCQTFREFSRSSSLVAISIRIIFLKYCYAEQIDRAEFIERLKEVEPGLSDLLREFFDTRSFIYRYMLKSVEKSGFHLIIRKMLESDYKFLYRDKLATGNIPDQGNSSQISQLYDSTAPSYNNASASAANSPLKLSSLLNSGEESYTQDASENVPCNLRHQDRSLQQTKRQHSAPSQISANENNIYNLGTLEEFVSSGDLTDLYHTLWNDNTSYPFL
Method: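 Universal 'all 10-mer' protein binding microarrays (Agilent AMADID 015681) probed with GST-tagged S. cerevisiae TFs (full-length or DBD) made by in vitro transcription/translation (PURExpress), about 100-200 nM. Bound TF was detected with fluorescent anti-GST. Each ungapped 8-mer (which stands for itself and its reverse complement) is scored by the PBM enrichment score (E-score), a modified Wilcoxon-Mann-Whitney statistic from -0.5 to +0.5, computed with the Universal PBM Analysis Suite. Scale: above 0.35 generally sequence-specific binding.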

| Sequence | PBM E-score |
| --- | --- |
| GTGATCGA | 0.0343 |
| GTACGCCA | -0.192 |
| CTGACTAC | -0.18 |
| ACTAAACG | -0.0578 |
| GAGAGCTA | 0.0205 |
| AACGACGA | -0.00945 |
| GAAGATGA | -0.155 |
| ACCGTACA | -0.209 |
| AAACTATC | -0.109 |
| ACATCATC | 0.0908 |
| CTGGGTGC | -0.223 |
| GGCCAATA | 0.18 |
| ACCGGCGA | 0.281 |
| CTCTATAA | -0.299 |
| ATAAGCAC | -0.01 |
| CATATAGG | -0.105 |
| TACTGACA | 0.125 |
| ACTGTGAT | -0.0576 |
| TAGCGGCA | 0.107 |
| GGGAGGAA | 0.11 |
| AAACCAGC | 0.0675 |
| GAAGTGGA | 0.089 |
| CGATTCCG | 0.466 |
| CTCGTAGA | -0.424 |
| AGCTTACA | -0.174 |

| Sequence | PBM E-score |
| --- | --- |
| CCAGATGA | 0.0102 |
| TAGGTCCA | -0.122 |
| TATCTTAA | -0.0962 |
| ATTATCAC | 0.0301 |
| AATACGTA | 0.0467 |
| ATAAGGAC | -0.0607 |
| CAACGGTA | 0.0448 |
| ACACGTGC | -0.105 |
| ACGGGAGC | 0.0886 |
| CACAGCAG | -0.234 |
| CATGAACG | -0.0457 |
| AGTCTCAC | -0.0728 |
| GGGGGCGA | -0.149 |
| CTGCGTAC | -0.195 |
| CCCAAGCC | -0.101 |
| AATCGATT | 0.0409 |
| CAGCCACA | -0.0182 |
| CTGGCACC | -0.049 |
| CTAACCTC | -0.0875 |
| GAGGCCCC | -0.0135 |
| AGGCCCAT | -0.0631 |
| AAAGGAAC | 0.0772 |
| GCGCCCAA | 0.049 |
| TCTATAGA | -0.251 |
| CCGAGAGC | 0.152 |

| Sequence | PBM E-score |
| --- | --- |
| GCATGGCA | 0.16 |
| CACCGCAC | -0.11 |
| GCGAAACC | 0.00164 |
| ACGGGTAA | 0.0609 |
| CAGCTTGG | 0.00196 |
| ACCGCGTC | 0.0777 |
| TATCGTAA | 0.0543 |
| AAAAGCAG | -0.239 |
| GGTGATAC | -0.0128 |
| ATTAGCAA | 0.0647 |
| AAAGGTTA | -0.281 |
| ACCGCCGC | 0.284 |
| GCTAAGCA | -0.121 |
| CGTTGTAA | -0.0759 |
| ACCCTGGC | -0.137 |
| GTAAGATA | 0.0502 |
| ATATGGTA | 0.0282 |
| AACGTAGT | -0.185 |
| CACATTGA | 0.0119 |
| GGACGAAC | 0.232 |
| CCGAATAC | 0.27 |
| AAATAATG | 0.104 |
| CAACTTTA | -0.0602 |
| GAAACGGC | 0.202 |
| CCAAGCAC | -0.165 |

| Sequence | PBM E-score |
| --- | --- |
| GCCCGAGA | 0.236 |
| GATCACAA | 0.0256 |
| ATATACAA | 0.113 |
| TATCAAAA | -0.111 |
| ACTACATC | -0.0573 |
| CTCGTCAC | 0.0572 |
| CCTCTTGA | -0.243 |
| GGCCTGTA | -0.0559 |
| GTGGGGAA | 0.094 |
| AAGGCCAT | 0.0255 |
| CTGCGCAC | 0.0573 |
| GTGTGTAA | -0.064 |
| AGAACCAC | -0.101 |
| ACGATCGT | 0.0151 |
| CTCAATTC | 0.00542 |
| CTCACGAG | -0.195 |
| AGAGGTTC | 0.179 |
| ATCATGCA | -0.167 |
| GGTGTTAA | -0.0241 |
| GCCGGTCA | 0.0765 |
| GCGAAACA | 0.0684 |
| ACCATTGC | -0.0273 |
| CGAGTTAC | 0.105 |
| GTACGGAA | 0.402 |
| AGACTGTG | -0.235 |

| Sequence | PBM E-score |
| --- | --- |
| ATATCCGC | 0.333 |
| CAAAAAGG | -0.185 |
| AGTTGTTC | 0.0285 |
| CTAATGTC | -0.0252 |
| TACCCGTA | 0.0329 |
| CTCCTACC | -0.0881 |
| ATATCGGA | 0.352 |
| CAGCCTGG | -0.2 |
| CGCGTAAC | -0.0838 |
| ATTAAAGC | -0.0878 |
| CAGCGCTC | -0.0123 |
| TCACTCCA | 0.00763 |
| CGGTCAGA | 0.111 |
| CTTCGCGA | 0.126 |
| AAAAGGGT | -0.111 |
| TCGGATAA | 0.307 |
| TCTTATAA | 0.0994 |
| ATCGCCGA | 0.154 |
| AGTCCCCA | -0.213 |
| ATCAGCCA | -0.0047 |
| TACGGGGA | 0.149 |
| AGGCCATC | -0.00459 |
| TCAGGTAA | -0.212 |
| AGCAGTTC | -0.0749 |
| AAATGGAC | 0.0692 |

| Sequence | PBM E-score |
| --- | --- |
| CGTTATAA | 0.135 |
| ACGCGGTA | 0.0327 |
| GTTCAGTA | -0.125 |
| GCATATAC | -0.0441 |
| CCGGTGCC | 0.18 |
| ACCTAGCC | -0.131 |
| AGGCTGTG | -0.272 |
| AACCCGGA | 0.384 |
| ATGCCATC | 0.12 |
| AAAGATTT | 0.0656 |
| CATTCGCC | 0.0646 |
| CGTTATCC | 0.0835 |
| AACAGACC | 0.0845 |
| CAACTCTG | -0.0464 |
| CTCGGATC | 0.386 |
| CCTGACCG | -0.0695 |
| CACAACAC | -0.116 |
| CAGTCCGG | 0.217 |
| ATTGCTCC | 0.0646 |
| CTCCATTC | -0.0497 |
| CACAGTAC | -0.0825 |
| CTACGGTC | -0.066 |
| AAATCATT | -0.104 |
| CCCTTTTC | -0.0561 |
| AGAATCCC | 0.0887 |

| Sequence | PBM E-score |
| --- | --- |
| CTCGGGGC | 0.144 |
| GGGCAAAA | 0.216 |
| ACGGGCAT | 0.0131 |
| GAACGCTA | -0.185 |
| GCAGGGAC | -0.176 |
| GCTAGAGC | -0.272 |
| GTATAGCA | -0.0257 |
| CCTTCCAA | -0.0521 |
| CATAGGCG | -0.0764 |
| TACACCTA | -0.108 |
| GCGTACAC | -0.23 |
| ATCGGATG | 0.256 |
| ATTAGATC | 0.0761 |
| GCAAGCTA | -0.141 |
| CACCTACA | -0.202 |
| AACTGACT | -0.153 |
| GATTCTGA | -0.0272 |
| ATCTTTAC | -0.0847 |
| CAATACTG | -0.168 |
| CTTGCAGC | -0.0894 |
| AACGTAAG | -0.194 |
| AAGTAATA | -0.074 |
